In paper PMC4336329 (PLoS ONE, 2015):
The campaign covered roughly 310,000 compounds. About 2,200 (0.71%) showed an effect of 50% or more. Effects have a minus sign here. The list shows a part of the results.

Target: human ether-à-go-go-related gene (hERG) potassium channel (human, UniProt Q12809)
Assay: primary screen, population patch clamp on CHO cells stably expressing hERG

Chain of human ether-à-go-go-related gene (hERG) potassium channel (Q12809 whole entry, looked up): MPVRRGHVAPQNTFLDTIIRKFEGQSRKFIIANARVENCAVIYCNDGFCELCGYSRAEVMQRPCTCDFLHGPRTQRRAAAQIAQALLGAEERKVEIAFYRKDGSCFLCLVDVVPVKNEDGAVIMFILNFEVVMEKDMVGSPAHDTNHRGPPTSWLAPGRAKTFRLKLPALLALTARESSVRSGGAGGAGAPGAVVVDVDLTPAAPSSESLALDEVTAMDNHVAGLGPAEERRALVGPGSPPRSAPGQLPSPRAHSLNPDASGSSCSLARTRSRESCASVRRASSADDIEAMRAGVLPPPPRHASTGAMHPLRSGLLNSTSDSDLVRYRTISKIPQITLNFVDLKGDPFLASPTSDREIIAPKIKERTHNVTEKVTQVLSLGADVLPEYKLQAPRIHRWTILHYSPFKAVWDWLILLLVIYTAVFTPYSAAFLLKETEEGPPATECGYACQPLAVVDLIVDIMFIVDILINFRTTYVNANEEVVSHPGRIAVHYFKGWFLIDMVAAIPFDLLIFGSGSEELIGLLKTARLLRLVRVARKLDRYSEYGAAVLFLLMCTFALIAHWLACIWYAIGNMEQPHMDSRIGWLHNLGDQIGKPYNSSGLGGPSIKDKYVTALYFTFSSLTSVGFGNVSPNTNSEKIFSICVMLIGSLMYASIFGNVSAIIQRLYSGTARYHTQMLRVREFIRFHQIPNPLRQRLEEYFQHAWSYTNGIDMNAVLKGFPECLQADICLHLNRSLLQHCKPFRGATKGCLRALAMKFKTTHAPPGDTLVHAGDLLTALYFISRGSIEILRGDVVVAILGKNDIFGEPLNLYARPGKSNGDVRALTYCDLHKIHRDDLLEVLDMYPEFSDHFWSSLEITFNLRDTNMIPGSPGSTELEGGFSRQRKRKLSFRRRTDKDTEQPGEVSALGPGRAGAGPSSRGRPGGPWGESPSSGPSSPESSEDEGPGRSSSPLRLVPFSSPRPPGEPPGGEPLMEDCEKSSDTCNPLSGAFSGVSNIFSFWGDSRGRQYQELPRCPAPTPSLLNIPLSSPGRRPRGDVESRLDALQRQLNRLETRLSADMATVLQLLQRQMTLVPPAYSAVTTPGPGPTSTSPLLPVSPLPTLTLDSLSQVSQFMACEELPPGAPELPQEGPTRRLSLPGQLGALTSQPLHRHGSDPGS

| SMILES | hERG current change (%, negative = inhibition) at 1uM |
| --- | --- |
| O=C(O)c1cc2sccc2s1 | 10.6% |
| Clc1ccsc1-c1ccnc(-n2cccc2)n1 | 5.32% |
| FC(F)(F)c1ccc(C2[C@H]3CN(Cc4cccnc4)[C@H](c4ccccc4)C34CC2(c2ccccc2)C4)cc1 (stereo partly shown) | 6.58% |
| Nc1cc2c3c(cccc3c1)C(=O)N(CCN1CCCC1)C2=O | 12.9% |
| Cc1ccc(NC(=O)COC(=O)CN2CSCC2=O)cc1C | 3.93% |
| Cc1ccc(C(=O)N[C@H](C(=O)OCC(=O)Nc2cccc(S(N)(=O)=O)c2)C(C)C)cc1 | -9.8% |
| O=C(OCn1nnc2ccccc2c1=O)c1ccc2ncsc2c1 | 6.96% |
| COc1ccc(-c2csc(-n3ncc(-c4cccs4)c3N)n2)cc1 | 14.9% |
| COc1ccc(N(CC(=O)NC2CCCC2)C(=O)Cn2nnc(-c3ccc(OC)c(OC)c3)n2)cc1 | 8.01% |
| COc1cccc(C(=O)O/N=C(\N)c2ccc([N+](=O)[O-])cc2)c1 | 14.9% |
| O=C(COc1ccccc1[N+](=O)[O-])N/N=C/c1cccs1 | 12% |
| COc1ccc(N2CCN(C(=O)CN=C3NS(=O)(=O)C(c4ccc(C)cc4)=C3C)CC2)cc1 | 3.2% |
| CC(C)c1ccc(CN2CCN(C(=O)CSc3nnnn3C3CC3)CC2)cc1 | -11.1% |
| Cc1ccc(C(=O)NCCn2c(N)c(C#N)c3nc4ccccc4nc32)cc1 | 12.9% |
| CCOc1c(Br)cc(CNc2ccc3c(c2)OCCO3)cc1OC | -1.23% |
| CCOc1ccccc1-c1nc(SCC(=O)O)n[nH]1 | -1.8% |
| Cc1cccc(C)c1-n1c(C)cc(/C=N\Nc2ccc([N+](=O)[O-])cn2)c1C | 10.6% |
| O=C(O)C1C2C=CC(C3CC23)C1C(=O)N1CCc2ccccc21 (stereo not shown) | -8.78% |
| CNC(=O)C(=O)N/N=C/c1cccnc1 | -5.85% |
| N#Cc1ccccc1NC(=O)CN1C(=O)NC2(CCCC2)C1=O | 10.2% |
| COc1cc(C(=O)NCCc2cn3ccc(C)cc3n2)cc(OC)c1OC | -0.848% |
| CCCCN(C(=O)CSCc1c(C)noc1C)c1c(N)n(CCCC)c(=O)[nH]c1=O | 12.4% |
| CC1(C(=O)NC(=S)N(CCC#N)Cc2cccnc2)CC1(Cl)Cl (stereo not shown) | 15.2% |
| CCOc1ccc(CNCCc2ccc3c(c2)OCO3)cc1 | -52.6% |
| O=c1c2ccccc2ncn1Cc1ccccc1 | 14.3% |
| O=C(COC(=O)c1ccccc1O)Nc1cccc(S(=O)(=O)N2CCCC2)c1 | -1.72% |
| COc1ccc(/C=N/n2cnn(Cc3ccccc3Cl)c2=S)cc1 | 9.09% |
| CC1CC(C)CN(C(=O)CNC(=O)c2ccc3ccccc3c2)C1 (stereo not shown) | 10.7% |

| SMILES | hERG current change (%, negative = inhibition) at 1uM |
| --- | --- |
| COc1ccc(CCNC(=O)C/C(C)=N/NC(=O)c2ccc(N)cc2)cc1OC | -0.621% |
| COCCOc1ccc(C(F)(F)F)cc1NC(=O)COC(=O)Cc1c[nH]c2ccccc12 | 8.51% |
| CC(C)(C#N)Cc1cc(CC(C)(C)C#N)cc(C(C)(C)C)c1 | 11% |
| CCOC(=O)N1CCN(C(=O)/C(=C/c2cccs2)NC(=O)c2ccc(OC)c(OC)c2)CC1 | -64.7% |
| O=C1OC(c2ccccc2)c2ccc3ccccc3c21 (stereo not shown) | 18.4% |
| Cc1ccc(CCNC(=O)CN(C)S(=O)(=O)c2cnc[nH]2)cc1 | -1.57% |
| N#Cc1ccccc1Cn1c(=O)n(Cc2ccc(C(=O)NCc3ccco3)cc2)c(=O)c2ccccc21 | -4.17% |
| CC(C)(C)C(=O)NC(=S)Nc1ccccn1 | 13.5% |
| CCN(C(=O)CN1CCN(S(=O)(=O)c2cc(Cl)ccc2Cl)CC1)c1c(N)n(Cc2ccccc2)c(=O)[nH]c1=O | -5.41% |
| Cc1c(/C=N\NC(=O)c2cccc(F)c2)cnn1C | 14.9% |
| O=C(CSc1nc2ccccc2c(=O)n1-c1ccc(F)cc1F)c1c[nH]c2ccccc12 | 10.2% |
| Cc1ccc(NC(=O)CCNC(=O)c2ccc(Br)cc2)cc1S(=O)(=O)N1CCOCC1 | -4.08% |
| COc1ccc(N(C(=O)C(C)C)S(=O)(=O)c2cccc([N+](=O)[O-])c2)cc1 | 6.7% |
| COc1ccc(C2CC(c3ccc(Br)cc3)=NN2C(=O)CN2CCCC2)cc1 (stereo not shown) | -28.3% |
| Nc1ccccc1SCC(=O)Nc1ccc(N2CCOCC2)cc1 | 5.34% |
| COc1ccc(CNC(=S)NCc2ccc(F)cc2)cc1OC | 11% |
| CCCS(=O)(=O)N1CCCC(C(=O)NCCCOCC)C1 (stereo not shown) | 0.616% |
| Oc1ccccc1CN1CCCC(N2CCc3ccccc3C2)C1 (stereo not shown) | 6.36% |
| Cc1cc(-c2ccccc2)n(-c2ccc(C(N)=O)cc2)n1 | 12.2% |
| O=C(CCC(=O)Nc1ccc(F)cc1)N/N=C/c1ccc(F)cc1 | 16.4% |
| COc1ccc(Cl)cc1C(=O)Nn1cnc2ccccc2c1=O | 1.9% |
| O=C(Cc1ccccc1)NC(=S)Nc1ccc2oc(-c3ccccc3F)nc2c1 | 5.24% |
| COCCNC(=O)Cn1cc(/C=C2\C(=O)NC(=O)N(c3cccc(C)c3C)C2=O)c2ccccc21 | 11.3% |
| CCCCn1c(N)c(N(Cc2ccccc2OC)C(=O)c2sccc2C)c(=O)[nH]c1=O | 13.7% |
| CC(C)(C)N(Cc1ccccc1)C(=O)COC(=O)CN1C(=O)C2CC=CCC2C1=O (stereo not shown) | 12.7% |
| O=C(O)C1CCCCC1C(=O)Nc1ccc(OCc2ccccc2)cc1 (stereo not shown) | 11.4% |
| COc1ccc(C(=O)NCC(=O)NCC(=O)OCC(=O)c2ccc(Br)cc2)cc1 | 7.32% |
